Laboratory results taken from PMC10581897.
These are yes or no findings as the source states them, for the method shown. For some assays here: In cells and extracts the contact can be indirect. Some results given as binding are weak or reduced against the parent protein; the word gives no strength.

Sequences of proteins named here, by UniProt entry; tags and fusion partners are left off.
UniProt Q13546: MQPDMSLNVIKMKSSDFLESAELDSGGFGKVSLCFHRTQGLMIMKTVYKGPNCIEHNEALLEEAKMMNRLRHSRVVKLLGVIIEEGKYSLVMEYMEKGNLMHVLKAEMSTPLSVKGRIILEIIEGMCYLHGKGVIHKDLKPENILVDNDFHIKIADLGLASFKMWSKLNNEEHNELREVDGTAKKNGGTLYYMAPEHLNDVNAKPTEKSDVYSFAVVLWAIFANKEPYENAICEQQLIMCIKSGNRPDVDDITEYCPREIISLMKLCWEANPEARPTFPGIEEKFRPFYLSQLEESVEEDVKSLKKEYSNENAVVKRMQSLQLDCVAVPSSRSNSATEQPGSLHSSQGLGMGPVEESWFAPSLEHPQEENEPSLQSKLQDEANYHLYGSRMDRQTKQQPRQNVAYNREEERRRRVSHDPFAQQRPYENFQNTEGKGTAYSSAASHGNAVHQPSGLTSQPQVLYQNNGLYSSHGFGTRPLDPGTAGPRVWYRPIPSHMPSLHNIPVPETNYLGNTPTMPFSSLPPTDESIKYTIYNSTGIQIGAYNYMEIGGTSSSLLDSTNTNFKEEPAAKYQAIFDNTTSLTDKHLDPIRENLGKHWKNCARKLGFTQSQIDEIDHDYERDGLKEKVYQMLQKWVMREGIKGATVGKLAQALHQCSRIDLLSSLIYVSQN
UniProt P35222: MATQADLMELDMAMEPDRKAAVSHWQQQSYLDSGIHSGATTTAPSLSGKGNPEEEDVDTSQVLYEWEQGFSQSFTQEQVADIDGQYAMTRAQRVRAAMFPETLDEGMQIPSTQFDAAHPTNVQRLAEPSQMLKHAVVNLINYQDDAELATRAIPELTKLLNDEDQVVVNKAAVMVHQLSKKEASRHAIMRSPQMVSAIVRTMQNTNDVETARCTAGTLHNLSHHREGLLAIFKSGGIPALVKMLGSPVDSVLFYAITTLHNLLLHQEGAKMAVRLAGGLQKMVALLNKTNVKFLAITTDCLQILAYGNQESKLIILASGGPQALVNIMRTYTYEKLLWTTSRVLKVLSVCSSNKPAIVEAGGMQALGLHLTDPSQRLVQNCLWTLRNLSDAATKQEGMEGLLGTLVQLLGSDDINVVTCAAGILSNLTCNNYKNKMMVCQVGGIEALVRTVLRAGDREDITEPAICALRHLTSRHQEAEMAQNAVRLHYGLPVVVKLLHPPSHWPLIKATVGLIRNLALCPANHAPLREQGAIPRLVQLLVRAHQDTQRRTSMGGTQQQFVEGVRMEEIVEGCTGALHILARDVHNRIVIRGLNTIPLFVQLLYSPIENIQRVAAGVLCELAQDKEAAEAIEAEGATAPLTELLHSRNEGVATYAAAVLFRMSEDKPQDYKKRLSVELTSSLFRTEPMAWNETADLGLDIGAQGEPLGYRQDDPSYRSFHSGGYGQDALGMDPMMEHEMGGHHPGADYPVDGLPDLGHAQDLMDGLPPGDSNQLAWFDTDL
UniProt Q13489: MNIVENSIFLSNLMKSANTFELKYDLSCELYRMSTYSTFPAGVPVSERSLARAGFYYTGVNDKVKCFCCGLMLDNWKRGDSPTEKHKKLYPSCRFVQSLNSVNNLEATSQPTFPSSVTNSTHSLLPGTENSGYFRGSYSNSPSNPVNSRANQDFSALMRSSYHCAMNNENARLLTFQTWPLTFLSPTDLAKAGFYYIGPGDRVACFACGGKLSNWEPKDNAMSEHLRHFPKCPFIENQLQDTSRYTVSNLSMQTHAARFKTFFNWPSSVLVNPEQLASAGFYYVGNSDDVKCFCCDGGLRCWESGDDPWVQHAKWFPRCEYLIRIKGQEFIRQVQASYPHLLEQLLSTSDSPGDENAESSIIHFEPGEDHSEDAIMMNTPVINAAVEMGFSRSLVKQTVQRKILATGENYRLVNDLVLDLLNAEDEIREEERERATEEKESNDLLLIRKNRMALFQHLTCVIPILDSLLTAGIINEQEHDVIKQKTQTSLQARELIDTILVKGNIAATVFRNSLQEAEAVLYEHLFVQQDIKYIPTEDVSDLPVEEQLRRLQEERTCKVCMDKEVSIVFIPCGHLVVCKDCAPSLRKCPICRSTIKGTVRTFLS

Experiments:
[1] = target: HIS-tagged RIP1 (UniProt Q13546); assay: pull-down; 200 ng GST-tagged β-catenin incubated with 200 ng HIS-tagged RIP1 in buffer A (50 mM Tris-HCl pH 7.5, 100 mM NaCl, 10% glycerol) with 0.1% Triton X-100, 1.5 h at 4 °C; captured on Ni-NTA agarose; IB with anti-GST and anti-HIS; both purified
[2] = target: β-catenin, endogenous (human (endogenous in HCT116 and DLD-1)) (UniProt P35222); assay: co-IP; endogenous proteins; HCT116 and DLD-1 lysates (0.7% NP-40 lysis buffer), IP with anti-β-catenin antibody at 4 °C overnight, protein G-Sepharose, IB for the partner; cells treated with WNT3A, or transfected with Flag-Mock or Flag-RIP1, or with control siRNA or siRIP1
[3] = target: RIP1 (receptor-interacting protein kinase 1), endogenous (human (endogenous in HCT116 and DLD-1)) (UniProt Q13546); assay: co-IP; endogenous proteins; HCT116 and DLD-1 cells treated with or without WNT3A; IP with RIP1 antibody, IB for β-catenin; 0.7% NP-40 lysis buffer, protein G-Sepharose
[4] = target: Flag-RIP1 (UniProt Q13546); assay: co-IP; HCT116 and DLD-1 cells transiently transfected with Flag-Mock vector or Flag-RIP1, without WNT; IP with anti-Flag, IB with anti-β-catenin

GST-tagged β-catenin (from UniProt P35222 1-781)
binding [1]: binds

RIP1 (receptor-interacting protein kinase 1), endogenous (from UniProt Q13546 1-671)
binding [2]: binds

cIAP2, endogenous (from UniProt Q13489 1-604)
binding [2]: no binding

β-catenin, endogenous (from UniProt P35222 1-781)
binding [3]: binds
binding [4]: binds
